Assay results reported in PubChem BioAssay AID1347043 (National Center for Advancing Translational Sciences (NCATS), 2019).
Among all 76,000 compounds or so, about 1,900 (2.5%) were called active. The inconclusive results got no clear call from the source; some entries with a clear call stand among them for comparison. Calls come from the whole dose curve; as a rule, active = well fitted inhibition curve with a large enough effect; inconclusive = small, poorly fitted or top-dose-only effect; inactive = flat fitted curve, though single readings scatter. Potencies of inconclusive entries are doubtful fits and often do not repeat.

molecular target: Luciferin 4-monooxygenase (Photinus pyralis) (UniProt P08659); test: Firefly luciferase inhibition profiling of diverse chemical library using quantitative high-throughput screening; note: nearly all actives have a fitted effect of over 65% in size; conditions: purified P. pyralis luciferase, luminescence, biochemical; series mostly up to 115 µM
Summary of the method: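 Luminescence read by CCD imaging after purified firefly luciferase (10nM final) was added to substrate buffer holding 10uM D-luciferin and 10uM ATP, pH 7.5, pre-dosed with compound.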
Potency is the fitted concentration of half-maximal effect; tags give direction and shape of the fitted curve.

Sequence of UniProt P08659 (P08659 whole entry, looked up): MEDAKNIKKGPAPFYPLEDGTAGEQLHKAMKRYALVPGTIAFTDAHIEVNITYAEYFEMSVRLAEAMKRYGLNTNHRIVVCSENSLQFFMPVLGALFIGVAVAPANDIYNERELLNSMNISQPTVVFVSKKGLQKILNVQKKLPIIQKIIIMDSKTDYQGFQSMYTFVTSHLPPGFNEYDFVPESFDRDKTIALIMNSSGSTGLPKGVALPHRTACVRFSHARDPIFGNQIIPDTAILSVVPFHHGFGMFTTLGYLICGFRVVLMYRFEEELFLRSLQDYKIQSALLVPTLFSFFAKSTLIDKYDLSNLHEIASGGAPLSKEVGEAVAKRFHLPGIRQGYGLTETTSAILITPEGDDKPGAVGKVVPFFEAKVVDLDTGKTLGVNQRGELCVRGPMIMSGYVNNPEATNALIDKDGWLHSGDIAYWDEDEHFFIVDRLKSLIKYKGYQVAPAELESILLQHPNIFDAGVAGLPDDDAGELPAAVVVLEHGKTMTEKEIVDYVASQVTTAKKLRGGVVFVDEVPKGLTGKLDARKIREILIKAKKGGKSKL

| SMILES | Potency |
| --- | --- |
| O=C(Nc1cc(F)ccc1Cl)c1cc2n(n1)CC(c1ccc(Br)cc1)OC2 (stereo not given) | inconclusive: 44.7 µM [inhibitor, partial curve] |
| O=C(NC1CCN(c2cc(-c3ccc(F)cc3)[nH]n2)CC1)c1c[nH]c2ccccc12 | inactive |
| CCCN(C)c1nccnc1OC1CCN(C(=O)CC(C)C)C1 (stereo not given) | active: 17.8 µM |
| CCN1c2cc(C(=O)Nc3ccc(N(C)C)cc3)ccc2C(=O)N2CCCCCC21 (stereo not given) | active: 17.8 µM |
| CN(Cc1cccc(C(F)(F)F)c1)C(=O)Nc1ccccc1 | inconclusive: 89.1 µM [inhibitor, partial curve] |
| COc1ccnc(CN2CCN(C)C3(CCC(=O)N(C)CC3)C2)c1OC (stereo not given) | inactive |
| Cc1ccc(C2Cn3nnc(C(=O)N4CCC(C(=O)NCC5CCCO5)CC4)c3CO2)cc1 (stereo not given) | inconclusive: 39.8 µM [inhibitor, partial curve] |
| O=C(C1CCCC1)N1CCCC(n2cc(-c3nc(-c4ccccc4)no3)nn2)C1 (stereo not given) | inconclusive: 50.1 µM [inhibitor, partial curve, poor fit] |
| COc1ccc2[nH]c(=O)c(CCC(=O)O)cc2c1 | inconclusive: 50.1 µM [inhibitor, partial curve, poor fit] |
| CCn1cc(S(=O)(=O)N2CCC3(CC2)CN(C(C)=O)CC3COC)cn1 (stereo not given) | inactive |
| CCCN(CC1CCOC1)C(=O)Nc1c(C)cccc1C (stereo not given) | inactive |
| CCn1ncc(N2CCC(NC(=O)c3cccc(N(C)C)c3)CC2)cc1=O | inconclusive: 44.7 µM [inhibitor, partial curve] |
| Cc1nc2c(OCC(=O)c3ccccc3)cccn2c(=O)c1-c1cc(C)n(-c2ccccc2)n1 | active: 39.8 µM |
| N#CC1CCN(C(=O)c2nc(-c3ccc(Cl)cc3Cl)c3ccccn23)CC1 | inconclusive: 44.7 µM [inhibitor, partial curve] |
| CN(CCc1cn[nH]c1)c1ccc(-c2nc(-c3ccccc3F)no2)cn1 | active: 0.631 µM |
| O=C(Nc1ccc(F)cc1F)N1CCC2(CC1)SCC(=O)N2c1ccc(Cl)cc1 | inconclusive: 44.7 µM [inhibitor, partial curve] |
| c1csc(CN2CC[C@H](c3nc4ccccc4[nH]3)C2)c1 | inconclusive: 100 µM [inhibitor, partial curve, poor fit] |
| CCN(CC)Cc1cnc2c(C(=O)N(C)Cc3cc(C)cc(C)n3)cnn2c1 | inactive |
| Cc1ccc(-c2cn3c(n2)CO[C@@H](CNC(=O)c2cccnc2)C3)cc1 | inconclusive: 70.8 µM [inhibitor, partial curve] |
| COCCn1cnnc1C(C)NC(=O)c1cn(C2CCC(N)CC2)nn1 (stereo not given) | inconclusive: 44.7 µM [inhibitor, partial curve] |
| O=C(NCc1ccc(F)cc1)C1CCN(C(=O)c2ncn3c2COC(c2ccccc2)C3)CC1 (stereo not given) | active: 14.1 µM |
| COc1ccc(C(=O)N[C@@H]2CCC[C@@H]2C(=O)NC2CCCCCC2)cn1 | inactive |
| C=CCNC(=O)c1cccc2c(C)nnn12 | active: 14.1 µM |
| CC(C)CC(NC(=O)C1=NNC(=O)CC1)c1nnc2n1CCNCC2 (stereo not given) | inactive |

| SMILES | Potency |
| --- | --- |
| Cc1cccc(C)c1OCc1cc(C(=O)N(C)CCCC2CCCC2)no1 | inconclusive: 50.1 µM [inhibitor, partial curve] |
| COc1ccc(-c2cc(N3CCCN(C(=O)c4cc5ccccc5[nH]4)CC3)n[nH]2)cc1 | inconclusive: 3.55 µM [inhibitor, full curve] |
| CSc1ccc(NC(=O)c2ccc3c(c2)N(C)C2CCCN2C3=O)cc1 (stereo not given) | active: 14.1 µM |
| COCc1nc(-c2ccc(OC3CCN(C(=O)CCc4ccc(OC)cc4)C3)cc2)no1 (stereo not given) | inactive |
| CC(C)N1CC[C@H](c2nnc(-c3ccccc3F)o2)C1 | active: 39.8 µM |
| COc1ccc(-c2cc(N3CCCC(NC(=O)c4ccc(OC)c(OC)c4)C3)n[nH]2)cc1 (stereo not given) | active: 3.16 µM |
| Cc1noc(CC2CCOC3(CCN(C(=O)c4ccc(C#N)cc4)CC3)C2)n1 (stereo not given) | inactive |
| Cc1ccc(NC(=O)Cn2c(C)cc3nc4n(c(=O)c32)CCC4)cc1 | inconclusive: 100 µM [inhibitor, single point] |
| Cc1cccc(NC(=O)N2CC(Oc3ccc(-c4nc(-c5ccccc5)no4)cc3)C2)c1 | inconclusive: 0.316 µM [inhibitor, full curve, poor fit] |
| NC(=O)c1cccc(-c2cc3c(cn2)CN(Cc2ccccc2)CCN3)c1 | active: 14.1 µM |
| CN(C)c1cccc(NC(=O)c2ccc3c(c2)NC(C)(COc2cccnc2)CO3)c1 (stereo not given) | inconclusive: 44.7 µM [inhibitor, partial curve] |
| CCOc1ccc(Nc2nc(-c3ccccc3)no2)cc1 | active: 0.794 µM |
| COc1cc(CCC(=O)N[C@H](C2CCNCC2)C2CC(O)C2)ccc1C (stereo not given in full) | inconclusive: 50.1 µM [inhibitor, partial curve] |
| Fc1ccc2nc(CO[C@H]3CN(Cc4ccc5ccccc5n4)C[C@H]3F)[nH]c2c1 | inconclusive: 126 µM [inhibitor, single point] |
| COC[C@@H]1CCCN1CCC(=O)Nc1ccc(C(=O)OC)cc1 | inactive |
| CC(C)N[C@H]1C[C@@H](Cc2cc(COc3ccccc3)on2)C1(C)C | inactive |
| COCC1CCCCN1C(=O)c1ccc2oc(CCc3ccccc3)nc2c1 (stereo not given) | inconclusive: 50.1 µM [inhibitor, partial curve] |
| CC(C)CC(=O)N1CCCC(c2noc(COc3ccccc3)n2)C1 (stereo not given) | inactive |
| O=C(NC1CCCN(c2cc(-c3ccccc3)[nH]n2)C1)c1ccc2nc[nH]c2c1 (stereo not given) | active: 31.6 µM |
| COC(=O)c1cccc(NC(=O)c2ccc3c(c2)N(C)C2CCCCN2C3=O)c1 (stereo not given) | inconclusive: 31.6 µM [inhibitor, partial curve] |
| O=C(NCCn1cccc1-c1nc(-c2ccc3c(c2)OCO3)no1)c1ccc(F)cc1 | inconclusive: 6.31 µM [inhibitor, full curve] |
| O=C1c2cnc(-c3cccc(C(F)(F)F)c3)nc2OCCN1Cc1ccccc1 | inconclusive: 22.4 µM [inhibitor, full curve] |
| Fc1ccc(CN2Cc3[nH]cnc3C[C@H]2c2nc(-c3ccc(F)c(Cl)c3)no2)cc1 | inconclusive: 63.1 µM [inhibitor, partial curve] |
| COc1ccc(C(=O)N2CCC(n3cc(-c4nc(-c5ccccc5)no4)nn3)C2)cc1OC (stereo not given) | inconclusive: 44.7 µM [inhibitor, partial curve] |

| SMILES | Potency |
| --- | --- |
| COc1ccc(-c2cc(N3CCN(C(=O)c4cccc(OC)c4)CC3)n[nH]2)cc1 | inactive |
| CN(C)c1nc(CN2CC(C)(Cc3ccc4c(c3)OCO4)CCC2=O)cs1 (stereo not given) | inconclusive: 44.7 µM [inhibitor, partial curve] |
| Cc1nc(-c2c3n(c(=O)n(CCOc4ccccc4)c2=O)CCCCC3)no1 | inconclusive: 44.7 µM [inhibitor, partial curve] |
| COc1ccccc1C(=O)NCCn1ccn2nc(-c3ccc(C)c(C)c3)cc2c1=O | inactive |
| Cn1nc(C(=O)N2CC[C@H](CO)[C@H](NC(=O)C3CC3)C2)c2ccccc21 | inconclusive: 50.1 µM [inhibitor, partial curve, poor fit] |
| COc1cccc(-c2cc(C(=O)N[C@@H](C)c3ncccc3C)[nH]n2)c1 | inconclusive: 44.7 µM [inhibitor, partial curve] |
| O=c1c2nc(-c3ccsc3)ccc2ncn1Cc1ccccc1 | inconclusive: 50.1 µM [inhibitor, partial curve] |
| CCn1cc(CN2CCN(C(=O)c3cccs3)CC2)ccc1=O | inconclusive: 50.1 µM [inhibitor, partial curve] |
| Cc1nnc(-c2cc(-c3ccsc3)ccn2)n1Cc1ccccc1 | inconclusive: 79.4 µM [inhibitor, partial curve, poor fit] |
| COc1ccc(C(C)NC(=O)c2ccc(-c3ccc(N4CCSCC4)nc3)cc2)cc1 (stereo not given) | inconclusive: 56.2 µM [inhibitor, partial curve] |
| COc1ccc(NC(=O)N2CCC(c3noc(-c4cccnc4)n3)C2)cc1 (stereo not given) | inactive |
| COc1ccc(NC(=O)NC[C@H]2O[C@H](Cc3cc(-c4cccc(O)c4)on3)CC[C@@H]2O)cc1 | inconclusive: 50.1 µM [inhibitor, partial curve] |
| CN1C[C@@H](NC(=O)c2ccccc2)C[C@H]1c1nc(-c2cnccn2)no1 | inconclusive: 22.4 µM [inhibitor, partial curve] |
| Cc1cc(NC(=O)c2cc(-c3ccc[nH]3)n[nH]2)ccc1F | inconclusive: 7.08 µM [inhibitor, full curve] |
| COc1ccc(-n2nc(C)c([C@H]3C=C[C@@H](OC(=O)Nc4ccc(Br)cc4)C3)c2C)cc1 | active: 35.5 µM |
| CNC(=O)c1cccc(-c2cnc(Nc3cccc(F)c3)c3c2CCO3)c1 | active: 22.4 µM |
| CC(=O)Nc1ccc(CNC[C@H]2Cn3cc(-c4ccc(C)cc4)nc3CO2)cc1 | active: 70.8 µM |
| CC(C(=O)N1CCCN(c2cc(-c3ccc(Cl)cc3)[nH]n2)CC1)c1ccccc1 (stereo not given) | inconclusive: 44.7 µM [inhibitor, partial curve] |
| COc1ccc(-c2ccc(C(=O)N[C@@H]3COCC[C@H]3OC)o2)cc1 | active: 35.5 µM |
| O=C(Nc1ccc2c(N3CCCC3)ncnc2c1)c1ccc(Br)cc1 | inconclusive: 17.8 µM [inhibitor, full curve, poor fit] |
| CN(Cc1ccccc1)C(=O)c1ccc(N2CC3CC(C2)[C@H]2CCCC(=O)N2C3)nc1 (stereo not given in full) | inactive |
| COc1ccc(C(=O)NC(C(=O)NC2CC2)C2CCN(C(C)=O)CC2)cc1 (stereo not given) | inactive |
